In PubChem BioAssay AID463173 (ICCB-Longwood Screening Facility, Harvard Medical School, 2010):
About 1,700 (3.3%) of roughly 52,000 compounds were called active. Rule as the data show it: active = survival mostly below about 52% (no sharp cut-off); inactive = mostly above about 56%. The list shows a part of the results.

These molecules were tested on Wild type (assay: growth inhibition of S. aureus wild type versus tarO mutant, primary screen, teichoic acid synthesis inhibitors, RN4220, OD600 (AID 463173)). Details: S. aureus RN4220 wild type/DeltatarO growth, OD600, 18 h, hits give low values, screened at 18.75 µg/mL (by protocol).
In the case of `COc1ccccc1CCNC(=O)Cc1c(C)c2c(cc(C)c3c(C)coc32)oc1=O`, the survival is reported as inactive: 108%.
For `O=C(NC1CC(=O)N(c2cccc(F)c2)C1)C1CCCCC1` (stereo not given), the survival was inactive: 72%.
`COc1ccc(Cl)cc1NC(=O)CN1c2ccccc2S(=O)(=O)c2ccccc21` was tested, and the survival was inactive: 59%.
`CCCCn1c(C)nc2ccccc21` was tested, and the survival was inactive: 99%.
For `O=C(CSC1=Nc2ccccc2N=C(c2ccc(F)cc2)C1)Nc1cc(F)ccc1F`, the survival was inactive: 99%.
`CCCCNc1cc(NC2CCCCC2)c2c3c(onc13)-c1ccccc1C2=O` was tested, and the survival was inactive: 117%.
With `COCCCNC(=O)c1c(NC(=O)c2cc(=O)c3cc(C)c(C)cc3o2)sc2c1CCCC2` the survival was inactive: 119%.
With `COc1ccccc1CCNC(=O)c1cc2ccccn2n1` the survival was inactive: 152%.
With `CCCN1C(=O)CN(C2CCCCCC2)C(=O)C1c1ccc(OCC)c(OC)c1` (stereo not given) the survival was inactive: 120%.
With `CCn1cc2nc(SCc3cccc(OC)c3)n(Cc3ccc(Cl)cc3)c(=O)c2n1` the survival was active: 10%.
`CCCOc1ccc(CNC(=O)C2CCN(c3nc4ccccc4nc3C(F)(F)F)CC2)cc1` was tested, and the survival was inactive: 59%.
For `Cc1ccc(SCC(=O)Nc2cccc(-c3nc4cc(Cl)ccc4o3)c2C)cc1`, the survival was inactive: 80%.
In the case of `CC1=C(C(=O)Nc2ccccc2Cl)C(c2cccs2)n2ncnc2N1` (stereo not given), the survival is reported as inactive: 95%.
`O=C(CCC1N=C2c3ccccc3N=C(SCc3cccc(F)c3)N2C1=O)NC1CCCCC1` (stereo not given) was tested, and the survival was inactive: 110%.
With `COC(=O)c1cc2sccc2n1Cc1ccccc1` the survival was inactive: 28%.
For `COc1cccc(NS(=O)(=O)c2ccc3[nH]cc(C(=O)NC4CCCCC4)c(=O)c3c2)c1`, the survival was inactive: 50%.
`Cc1cc(NS(=O)(=O)c2ccc(NC(=O)COc3c(C)cc(Br)cc3C)cc2)no1` was tested, and the survival was inactive: 133%.
With `O=S(=O)(NCc1ccccc1)c1ccc2[nH]c3c(c2c1)CCCCC3` the survival was inactive: 99%.
For `Cc1c(CNC(C)c2ccccc2)c(C(=O)O)c(C)n1Cc1c(F)cccc1Cl` (stereo not given), the survival was inactive: 76%.
`CCOC(=O)C1CCCN(C(=O)c2cc3c(=O)n(C)c4ccccc4c3s2)C1` (stereo not given) was tested, and the survival was inactive: 50%.
In the case of `CCOc1ccc(-c2c(C)nn3c(C)c(C(=O)NCC(C)c4ccccc4)cnc23)cc1OCC` (stereo not given), the survival is reported as inactive: 72%.
`CCCCNS(=O)(=O)c1ccc(S(=O)(=O)n2cnc3ccccc32)cc1` was tested, and the survival was inactive: 112%.
With `CCc1ccc(N2C(=O)CS(=O)(=O)C23C(=O)N(Cc2ccccc2)c2ccccc23)cc1` (stereo not given) the survival was inactive: 65%.
`COc1cc(-c2noc(-c3nnn(-c4ccc(Cl)cc4)c3C)n2)cc(OC)c1OC` was tested, and the survival was inactive: 81%.
With `Cc1ccc(-n2nc(CO)c(C(=O)NCCc3ccccc3)n2)cc1C` the survival was inactive: 114%.
